The conditions of data set [1]: co-administration of atorvastatin or rosuvastatin and certain CHCs containing EE; cited from earlier work.
A short description of data set [2]: Regression model of 364-day continuous vaginal ring use. On the set-up: species or system human. The method, then:
Continuous use models for the vaginal ring system were post hoc analyses based on PK data obtained from a phase 1 PK sub-study.
A regression model was constructed post hoc to describe the relationship between serum SA concentration and the number of days of vaginal ring use and to extrapolate the expected SA concentration after one year of continuous use. Serum SA data points taken in the first 72 hours following vaginal ring insertion and from days 1-3 from each cycle were not included, as the initial burst of steroid release from insertion/reinsertion would not be predictive of serum SA levels with continuous use. Serum SA levels measured after vaginal ring removal were also excluded. Data from subjects who were not adherent during vaginal ring use were also excluded. Adherence was evaluated in the primary PK sub-study, which was based on diary recordings and observed progesterone/estradiol levels. Serum measurements were log transformed for regression modeling. Serum SA measurements were from cycles 1, 3 and 13. The day of use (if continuous) was calculated as (cycle −1)*21+cycle-day of use (21/7). The last measurement was from cycle 13, day 15, corresponding to the 267th day of use. Using the model's parameters, serum SA levels after 364 days of hypothetical use and the 95% confidence interval (95% CI) around the predicted values were predicted as well as the mean. […] A similar modeling approach was used for EE.
Linear mixed models adjusting for the repeated measurements from each subject during the study were constructed. Linear regression models without a repeated measure adjustment were also constructed for comparison and simplicity. The models were fitted using SAS version 9.4 (SAS Institute, Cary, NC).

The target in another data set is serum albumin (Homo sapiens, UniProt P02768). Put plainly: Binding to serum albumin.
Data set [3] deals with cytochrome P450 (CYP) 3A4 isoenzyme (Homo sapiens, UniProt P08684). It is filed as in vitro ADME. An excerpt: The hydroxylated EE metabolites have weak estrogenic activity.
Another data set is described as follows: Half-life. It is filed as in vivo. The settings on record: human, serum, other: vaginal; read-out: mean (SD) half-life (converted).
The nature of data set [4]: Regression model of quarterly use. Also noted: species or system human. An excerpt: The regression model described in Example 12 was used to predict AUC and Cavg values for SA and EE after four quarterly periods of extended use of the vaginal system disclosed herein. […] Cavg is the SA concentration in serum during the product-use period while the AUCF-L is the area under the curve for the period beginning on the first day (“F”) and ending on the last day (“L”) of the product-use cycle.
Cavg is the SA concentration in serum during the product-use period while the AUCF-L is the area under the curve for the period beginning on the first day and ending on the last day of the product-use cycle.
Cavg is the average concentration in serum during the product-use period while the AUCF-L is the area under the curve for the period beginning on the first day and ending on the last day of the product-use cycle.
Cavg is the average EE concentration in serum during the product-use period while the AUCF-L is the area under the curve for the period beginning on the first day and ending on the last day of the product-use cycle.

The next data set concerns human serum proteins. Put plainly: Serum protein binding. It is filed as in vitro ADME.
In the next data set the test system is CYP enzymes. Put plainly: In vitro CYP inhibition/induction studies. The conditions noted are these: at the therapeutic dose. In kind it is in vitro ADME.
Another data set relates to QTc interval. In words: Phase 1 thorough QTc study. The conditions noted are these: single intravenous bolus dose giving 4.5-fold the therapeutic serum concentrations. It is filed as in vivo, human. The method, then:
The effect of SA on the QTc interval was evaluated in a Phase 1 randomized, placebo and positive controlled, double-blind, single-dose, three-period, crossover thorough QTc study in 44 healthy adult female subjects.

Data set [5] deals with Chinese hamster ovary cells. In words: Chromosomal aberration assay. It is filed as cell-based.
A further data set relates to mouse. Put plainly: In vivo mouse micronucleus test.
Data set [6] addresses T1, sex hormone-binding globulin (SHBG) (Homo sapiens, UniProt P04278).
T1 sequence (P04278 30-402): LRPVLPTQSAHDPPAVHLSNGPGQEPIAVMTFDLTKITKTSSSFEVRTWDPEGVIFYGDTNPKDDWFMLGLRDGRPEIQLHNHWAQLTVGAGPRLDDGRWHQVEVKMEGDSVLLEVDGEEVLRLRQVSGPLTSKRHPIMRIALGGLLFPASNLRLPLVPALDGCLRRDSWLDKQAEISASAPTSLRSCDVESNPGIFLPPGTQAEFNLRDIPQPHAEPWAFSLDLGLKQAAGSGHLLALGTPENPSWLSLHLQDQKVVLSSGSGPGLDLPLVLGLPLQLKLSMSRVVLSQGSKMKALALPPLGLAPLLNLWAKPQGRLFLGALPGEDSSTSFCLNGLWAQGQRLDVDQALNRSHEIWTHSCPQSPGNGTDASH
Put plainly: Binding to sex hormone-binding globulin.

For data set [7], the system named is rats. Put plainly: Return to fertility study in rats with subdermal implants. In kind it is in vivo, rat. The protocol: A return to fertility study was conducted with segesterone acetate in rats, using subdermal implants releasing a dose approximately 25 times the anticipated daily vaginal human dose (based on body surface area).
The test system of data set [8] is rats. In words: 2-year carcinogenicity study in rats with subdermal implants. The settings on record: subdermal implants releasing 40, 100, and 200 μg per day, 2 years. In kind it is in vivo, rat. An excerpt: Long-term continuous administration of natural and synthetic estrogens in certain animal species increases the frequency of carcinomas of the breast, uterus, cervix, vagina, testis, and liver.

In a further data set the test system is ovulation. The conditions noted are these: in vivo; cited from earlier work.
The test system of the next data set is Salmonella. Put plainly: Ames/Salmonella reverse mutation assay. In kind it is cell-based.
Setting [9] is: linear regression model, value in brackets.
Where [10] appears, read: SA predicted, 84-day product-use periods, 7-day removal, quarterly period 3.

Sequence of UniProt P08684 (P08684 whole entry): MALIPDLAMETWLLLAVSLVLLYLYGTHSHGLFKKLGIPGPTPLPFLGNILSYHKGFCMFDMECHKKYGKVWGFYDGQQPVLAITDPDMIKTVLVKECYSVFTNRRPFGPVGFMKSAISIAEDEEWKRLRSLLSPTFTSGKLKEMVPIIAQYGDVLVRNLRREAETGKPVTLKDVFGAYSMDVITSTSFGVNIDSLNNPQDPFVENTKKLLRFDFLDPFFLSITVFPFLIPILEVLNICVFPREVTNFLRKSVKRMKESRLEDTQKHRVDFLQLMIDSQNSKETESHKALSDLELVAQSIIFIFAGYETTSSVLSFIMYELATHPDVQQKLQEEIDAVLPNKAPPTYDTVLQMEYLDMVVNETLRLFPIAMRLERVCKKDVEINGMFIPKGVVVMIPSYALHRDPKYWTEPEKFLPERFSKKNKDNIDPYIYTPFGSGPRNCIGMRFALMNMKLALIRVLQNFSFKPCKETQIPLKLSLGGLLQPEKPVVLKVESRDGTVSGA

As for `C#C[C@]1(O)CC[C@H]2[C@@H]3CCc4cc(O)ccc4[C@H]3CC[C@@]21C` [EE, 19-nor-17α-pregna-1,3,5(10)-trien-20-yne-3,17-diol], the “increase in systemic exposure of EE” value in data set [1] was 20-25%. In [2] (continuous use model, linear regression), the “accumulation of serum EE levels at 364 days” value was “no accumulation”. Moreover, in data set [2] (linear regression model), the “95% CI for the predicted mean serum EE level, day 364” value is 39 to 48 pmol/L. Besides, the “predicted mean serum EE level after 364 days of continuous vaginal ring use” value in data set [2] (linear regression model) is 43 pmol/L; in [2] (setting [9]) it was 12.7 pg/mL. Moreover, the “bound to serum albumin” value at serum albumin worked out at 98.5%. For the same compound, the metabolizing enzyme entry in data set [3] is “metabolized by the cytochrome P450 (CYP) 3A4 isoenzyme”. Besides, the half-life in “Half-life” was 15.1 h. In addition, the “accumulation of serum EE levels after quarterly product-use periods” value in data set [4] (84-day or 88-day models) is “no accumulation”.

As to `C=C1C[C@H]2[C@@H]3CCC4=CC(=O)CC[C@@H]4[C@H]3CC[C@]2(C)[C@@]1(OC(C)=O)C(C)=O` [SA, 16-methylene-17α-acetoxy-19-nor-pregn-4-ene-3,20-dione], the “95% CI for the predicted mean serum SA level, day 364” value in data set [2] (linear regression model) is 171 to 198 pmol/L. Also, in data set [2] (setting [9]), the predicted mean serum SA level after 364 days of continuous vaginal ring use is 68 pg/mL. The “bound to human serum proteins” value in the data set on human serum proteins is given as “approximately 95%”. In addition, the “inhibition or induction of CYP enzymes” value with CYP enzymes is “unlikely to inhibit or induce CYP enzymes”. In addition, the “effect on the QTc interval” value in the data set on QTc interval was “did not prolong the QTc interval to any clinically relevant extent”. The mutagenicity/clastogenicity entry (in [5]; in the data set with mouse; in the data set with Salmonella) was “neither mutagenic nor clastogenic” in each case. The “binding affinity for sex hormone-binding globulin (SHBG)” value in data set [6] is reported as “negligible”. The metabolizing enzyme result in [3] is recorded as “metabolized by the cytochrome P450 (CYP) 3A4 isoenzyme”. For the same compound, the “ovulation and litter parameters after treatment” value in the data set on rats [7] (7 weeks after cessation of treatment) is “no adverse effects on ovulation or resulting litter parameters”. Also, in the data set with rats [7] (subdermal implants, three months of treatment), the fertility during treatment entry is “suppressed fertility”. Further, in [4] (setting [10]), the “AUCF-L(pmol*h/L) (95% CI)” value is on record as 527,507 (506,390- pmol*h/L. Besides, the “Cavg (pmol/L) (95% CI)” value in data set [4] (setting [10]) is on record as 261 (258- pmol/L; in data set [4] (SA predicted, 84-day product-use periods, 7-day removal, quarterly period 4), 217 (214- pmol/L. Further, in [4] (linear regression model), the “predicted serum SA level after the last quarterly product-use period” value is recorded as “above 100 pmol/L”. The tumor incidence entry in the data set on rats [8] was “no drug-related increase in tumor incidence was observed”. In addition, in the data set with ovulation, the “serum SA level previously shown to suppress ovulation” value is reported as “above 100 pmol/L”.
